From PubChem BioAssay AID624418 (National Center for Advancing Translational Sciences (NCATS), 2012)
The campaign covered roughly 410,000 compounds. About 530 (0.13%) were called active. The shares of active, inactive and inconclusive entries below differ from those in the screen. Calls follow the shape of the dose curve; as a rule, active = well fitted inhibition curve with a large enough effect; inconclusive = small, poorly fitted or top-dose-only effect, or another doubt; inactive = no such curve, though single readings can be large or run the other way. A potency beside an inconclusive call is a rough fit, not a confirmed value.

Experiment: qHTS of GLP-1 Receptor Inverse Agonists: Cytotox Screen
Settings: HEK293 cAMP-luciferase reporter cells, luminescence, 24 h; series mostly up to 38.3 µM
In short: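 Seeding density was 200 cells/uL; after overnight-length (12 h) culture, 23 nL compounds went on for 24 h at 37 °C. Readout used a luciferase detection reagent, luminescence taken after 12 min at room temperature.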
Potency is read from the fitted curve at half-maximal effect.

Q: Which Potency does the source give for `COc1ccc(OC)c(C(c2nnnn2C(C)(C)C)N2CCc3ccccc3C2)c1` (stereo not drawn) here?
A: inconclusive: 2 µM [inhibitor, partial curve, poor fit]

Q: For `CCCn1nc(C(=O)N2CC(=O)Nc3ccccc32)c2ccccc2c1=O`, which Potency is on record?
A: inconclusive: 11.2 µM [inhibitor, single point]

Q: With `O=C(NC1CC(=O)N(c2cccc(F)c2)C1)c1ccc(S(=O)(=O)N2CCCC2)cc1` (stereo not drawn) as the compound, how does the Potency read?
A: inactive

Q: Which Potency does the source give for `CCc1ccc(NC(=O)Nc2ccc3c(c2)N(C)C(=O)CS3)cc1` here?
A: inconclusive: 2.24 µM [inhibitor, full curve]

Q: For `C=C(C)CNC(=S)N=Nc1c(O)[nH]c2ccc([N+](=O)[O-])cc12`, which Potency is on record?
A: active: 4.47 µM

Q: For `Cc1ccc2[nH]c(=O)c(CN(Cc3ccco3)C(=O)c3ccncc3)cc2c1`, which Potency is on record?
A: inconclusive: 2.82 µM [inhibitor, full curve]

Q: For `O=C(N/N=C/c1ccc(Br)s1)c1ccncc1`, which Potency is on record?
A: inconclusive: 10 µM [inhibitor, partial curve, poor fit]

Q: For `O=C1N[C@@H](Cc2ccccc2)[C@@H](c2ccco2)O1`, which Potency is on record?
A: inconclusive: 2.51 µM [inhibitor, full curve, poor fit]

Q: Which Potency does the source give for `Cc1c(C=NNc2ccccc2)[nH]c(=O)[nH]c1=O` here?
A: inconclusive: 11.2 µM [inhibitor, partial curve]

Q: With `Cc1cccc(NC(=S)N(Cc2ccco2)C(C)c2cccs2)c1` (stereo not drawn) as the compound, how does the Potency read?
A: inactive

Q: For `CN(NC1OC(=O)c2ccccc21)c1ccccc1[N+](=O)[O-]` (stereo not drawn), which Potency is on record?
A: inconclusive: 14.1 µM [inhibitor, single point]

Q: Which Potency does the source give for `CCOC(=O)Cc1csc(NC(=O)c2ccc([N+](=O)[O-])cc2[N+](=O)[O-])n1` here?
A: inconclusive: 25.1 µM [inhibitor, single point]

Q: With `NC(=S)N/N=C/C=C/c1ccccc1` as the compound, how does the Potency read?
A: inconclusive: 5.62 µM [inhibitor, partial curve, poor fit]

Q: With `COc1ccccc1NC(=O)Cn1c(=O)n(Cc2ccccc2)c(=O)c2sc3ccccc3c21` as the compound, how does the Potency read?
A: inactive

Q: Which Potency does the source give for `O=C1c2cccc(OCC(=O)N3CCCc4ccccc43)c2CCN1Cc1ccc(F)cc1` here?
A: inconclusive: 28.2 µM [inhibitor, single point]

Q: For `O=C(Nc1ccc2c(c1)OCO2)O[C@@H]1C[C@H]2CCC(=O)N3CC[C@@H](C1)[C@@H]23`, which Potency is on record?
A: inconclusive: 0.501 µM [inhibitor, full curve, poor fit]

Q: For `CCCc1nc2sc3c(N4CCC(C)CC4)ncnc3c2c2c1CCCC2`, which Potency is on record?
A: inactive

Q: With `N#Cc1cc(C(=O)c2cc(Br)ccc2O)cn(C2CC2)c1=O` as the compound, how does the Potency read?
A: inactive

Q: Which Potency does the source give for `CC(=O)Nc1ccc(CNc2nc(NC(C)C)nc3cc(-c4ccccc4)sc23)cc1` here?
A: inconclusive: 28.2 µM [inhibitor, single point]

Q: Which Potency does the source give for `CCOC(=O)c1nn(-c2ccc(C)c(C)c2)c(=O)c2c(N)scc12` here?
A: inconclusive: 22.4 µM [inhibitor, single point]

Q: With `COc1ccc(-n2cc(CNCCc3ncc(C)[nH]3)c(-c3ccccc3Cl)n2)cc1` as the compound, how does the Potency read?
A: inactive

Q: Which Potency does the source give for `Cc1ccc2c(c1)COc1c3ccc(C(=O)NCCO)cc3nn1-2` here?
A: inactive

Q: Which Potency does the source give for `CC(C)c1ccc2[nH]c3c(c2c1)CCC/C3=N\NC(=O)c1ccncc1` here?
A: inconclusive: 28.2 µM [inhibitor, single point]

Q: For `O=C(CSc1cccc[n+]1[O-])c1cc(Cl)ccc1Cl`, which Potency is on record?
A: active: 0.891 µM

Q: Which Potency does the source give for `O=C(Nc1ccc(C(=O)OCc2cc(=O)n3c4c(sc3n2)CCCC4)cc1)c1ccccc1` here?
A: inactive

Q: With `COc1cccc(-c2nc(SCc3cc(=O)c4ccc(C)c(C)c4[nH]3)n[nH]2)c1` as the compound, how does the Potency read?
A: inconclusive: 10 µM [inhibitor, partial curve, poor fit]

Q: Which Potency does the source give for `COc1ccccc1/C=C/C=C(\C#N)C(=O)NC(C)c1ccccc1` (stereo not drawn) here?
A: inconclusive: 28.2 µM [inhibitor, single point]

Q: Which Potency does the source give for `Cc1c(C(=O)c2no[n+]([O-])c2C(=O)c2cnn(C)c2C)cnn1C` here?
A: inconclusive: 28.2 µM [inhibitor, single point]

Q: With `O=C1C=CC(=O)N1CCCCCCN1C(=O)C=CC1=O` as the compound, how does the Potency read?
A: inconclusive: 10 µM [inhibitor, partial curve]

Q: For `Cc1ccc(-n2sc3cc(F)ccc3c2=O)c(C)c1`, which Potency is on record?
A: inconclusive: 5.01 µM [inhibitor, full curve]

Q: With `Cc1cccc(-n2c(O)c(C=Nc3ccccc3O)c3ccccc3c2=O)n1` as the compound, how does the Potency read?
A: inconclusive: 10 µM [inhibitor, single point]

Q: For `Cc1cc(C(=O)COC(=O)c2ccc(O)cc2)c(C)n1-c1ccccc1F`, which Potency is on record?
A: inactive

Q: For `COc1cccc(NC(=O)Nc2ccc(C(C)(C)C)cc2)c1`, which Potency is on record?
A: inactive

Q: Which Potency does the source give for `COc1cc(CNCCc2c[nH]c3ccccc23)ccc1OCc1ccc(F)cc1` here?
A: inconclusive: 28.2 µM [inhibitor, single point]

Q: Which Potency does the source give for `O=C(Nc1ccc2c(c1)OCO2)C1CCN(S(=O)(=O)c2cccs2)CC1` here?
A: inconclusive: 10 µM [inhibitor, partial curve, poor fit]

Q: Which Potency does the source give for `CCCCCNc1nc2sc3c(c2c(=O)n1-c1cccc(Cl)c1)CCN(C)C3` here?
A: inconclusive: 11.2 µM [inhibitor, single point]

Q: With `Cc1nn(-c2ccccc2)c(N2CCCC2)c1/C=N/NC(=S)Nc1ccc(F)cc1` as the compound, how does the Potency read?
A: inactive

Q: For `Cc1c(O)nc(SCC(=O)Nc2ccc3c4c(cccc24)CC3)n(-c2ccc(F)cc2)c1=O`, which Potency is on record?
A: inconclusive: 3.16 µM [inhibitor, full curve, poor fit]

Q: For `CCCCC(=O)NC(c1ccccc1)c1ccc2cccnc2c1O` (stereo not drawn), which Potency is on record?
A: inconclusive: 1 µM [inhibitor, full curve, poor fit]

Q: Which Potency does the source give for `COc1ccc2cnn(-c3ccc(OC(F)(F)Cl)cc3)c(=O)c2c1OC` here?
A: inactive

Q: With `Cc1cc(NC(=O)C23CCC(C)(C(=O)O2)C3(C)C)no1` (stereo not drawn) as the compound, how does the Potency read?
A: inactive

Q: With `O=C(CSc1nc2ccc(Nc3nc(N4CCOCC4)nc(N4CCOCC4)n3)cc2s1)NCc1ccco1` as the compound, how does the Potency read?
A: inconclusive: 6.31 µM [inhibitor, partial curve, poor fit]

Q: With `O=C(CSc1nnc(SCc2ccc(Cl)cc2)s1)N/N=C/c1c[nH]c2ccccc12` as the compound, how does the Potency read?
A: inconclusive: 12.6 µM [inhibitor, single point]
